# The supplement of paper PMC8728848
# The other results are listed elsewhere or left out.
# Assays:
# Test in all cases: glycan array binding signal (z-score within array); higher = stronger binding
# Conditions in all cases: glycan notation: IUPAC condensed, linker removed
# [1] = biological target: Fuc(a1-2)[GalNAc(b1-3)]Gal
# Outline: (§1)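 Negative Z-scores can be read as non-binding. The Z-score is calculated within each array and then averaged across arrays of one protein sequence at different concentrations or buffers and across linkers. Arrays, 3228 in all, were curated from the Consortium for Functional Glycomics database and kept only where the protein sequence was available.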
# Fuc(a1-3)GlcNAc = biological target: Fuc(a1-3)GlcNAc
# Outline: as §1
# [2] = biological target: Fuc(a1-3)[Gal(b1-4)]Glc6S
# Outline: as §1
# [3] = biological target: Fuc(a1-3)[Gal(b1-4)]GlcNAc
# Outline: as §1
# [4] = biological target: Fuc(a1-3)[Gal(b1-4)]GlcNAc(b1-2)Man
# Outline: as §1
# [5] = biological target: Fuc(a1-3)[Gal(b1-4)]GlcNAc(b1-2)Man(a1-3)[Fuc(a1-3)[Gal(b1-4)]GlcNAc(b1-2)Man(a1-6)]Man(b1-4)GlcNAc(b1-4)GlcNAc
# Outline: as §1
# [6] = biological target: Fuc(a1-3)[Gal(b1-4)]GlcNAc(b1-2)Man(a1-3)[Fuc(a1-3)[Gal(b1-4)]GlcNAc(b1-2)Man(a1-6)]Man(b1-4)GlcNAc(b1-4)[Fuc(a1-6)]GlcNAc
# Outline: as §1
# [7] = biological target: Fuc(a1-3)[Gal(b1-4)]GlcNAc(b1-3)Gal(b1-3)[Fuc(a1-4)]GlcNAc
# Outline: as §1
# [8] = biological target: Fuc(a1-3)[Gal(b1-4)]GlcNAc(b1-3)Gal(b1-4)[Fuc(a1-3)]GlcNAc
# Outline: as §1
# [9] = biological target: Fuc(a1-3)[Gal(b1-4)]GlcNAc(b1-3)Gal(b1-4)[Fuc(a1-3)]GlcNAc(b1-3)Gal(b1-4)[Fuc(a1-3)]GlcNAc
# Outline: as §1
# [10] = biological target: Fuc(a1-3)[Gal(b1-4)]GlcNAc(b1-3)GalNAc
# Outline: as §1
# [11] = biological target: Fuc(a1-3)[Gal(b1-4)]GlcNAc(b1-6)GalNAc
# Outline: as §1
# [12] = biological target: Fuc(a1-3)[Gal(b1-4)]GlcNAc(b1-6)[Gal(b1-3)GlcNAc(b1-3)]Gal(b1-4)Glc
# Outline: as §1
# [13] = biological target: Fuc(a1-3)[Gal(b1-4)]GlcNAc6S
# Outline: as §1
# [14] = biological target: Fuc(a1-3)[Gal3S(b1-4)]Glc
# Outline: as §1
# [15] = biological target: Fuc(a1-3)[Gal3S(b1-4)]GlcNAc
# Outline: as §1
# [16] = biological target: Fuc(a1-3)[Gal3S(b1-4)]GlcNAc6S
# Outline: as §1
# [17] = biological target: Fuc(a1-3)[GalNAc(b1-4)]GlcNAc
# Outline: as §1
# [18] = biological target: Fuc(a1-3)[GalNAc(b1-4)]GlcNAc6S
# Outline: as §1
# Fuc(a1-4)GlcNAc = biological target: Fuc(a1-4)GlcNAc
# Outline: as §1
# Fuc(b1-3)GlcNAc = biological target: Fuc(b1-3)GlcNAc
# Outline: as §1
# Gal(a1-2)Gal = biological target: Gal(a1-2)Gal
# Outline: as §1
# Gal(a1-3)Gal = biological target: Gal(a1-3)Gal
# Outline: as §1
# Gal(a1-3)Gal(b1-3)GlcNAc = biological target: Gal(a1-3)Gal(b1-3)GlcNAc
# Outline: as §1
# [19] = biological target: Gal(a1-3)Gal(b1-3)GlcNAc(b1-2)Man
# Outline: as §1
# [20] = biological target: Gal(a1-3)Gal(b1-3)GlcNAc(b1-2)Man(a1-3)[Gal(a1-3)Gal(b1-3)GlcNAc(b1-2)Man(a1-6)]Man(b1-4)GlcNAc(b1-4)GlcNAc
# Outline: as §1
# [21] = biological target: Gal(a1-3)Gal(b1-3)GlcNAc(b1-3)GalNAc
# Outline: as §1
# [22] = biological target: Gal(a1-3)Gal(b1-3)GlcNAc(b1-6)GalNAc
# Outline: as §1
# [23] = biological target: Gal(a1-3)Gal(b1-3)[Fuc(a1-4)]GlcNAc(b1-2)Man(a1-3)[Gal(a1-3)Gal(b1-3)[Fuc(a1-4)]GlcNAc(b1-2)Man(a1-6)]Man(b1-4)GlcNAc(b1-4)GlcNAc
# Outline: as §1
# Gal(a1-3)Gal(b1-4)Glc = biological target: Gal(a1-3)Gal(b1-4)Glc
# Outline: as §1
binder,measurement,setting,value
"AT1G73650(15) (Arabidopsis thaliana), F4HRY1 (protein) MGTVLDSHFLALTAIVTVIYQFIFFVITALFKFDQVTDFAGSTNFVILAVLTLVLKASWHFRQIVLTLLVVVWGLRLGIFLLMETRILQWGEDRRFDEQRGNIVRLIIFWTLQAVWVWTVSLPLTLVNASDGGGSLKPADVIGWTMETWVFGFLIEAAADQQKLSFKNSPENRGKWCDVGVWKYSRHPNYFGEMETLLWWGIFVAASPVLEGAEYLVIFGPLFLTLLLLFVSGIPLLEASADKKHGNSGAYRSYKKTTSPLILFPRGVYGNLPGWFKTVFLFEFPFYSRNLPQEGRLQNSKEKEVKDD",glycan array binding signal (z-score),[1],-0.563
same,glycan array binding signal (z-score),Fuc(a1-3)GlcNAc,0.234
same,glycan array binding signal (z-score),[2],2.65
same,glycan array binding signal (z-score),[3],-0.444
same,glycan array binding signal (z-score),[4],-0.059
same,glycan array binding signal (z-score),[5],1.74
same,glycan array binding signal (z-score),[6],-0.573
same,glycan array binding signal (z-score),[7],-0.557
same,glycan array binding signal (z-score),[8],-0.135
same,glycan array binding signal (z-score),[9],-0.45
same,glycan array binding signal (z-score),[10],0.945
same,glycan array binding signal (z-score),[11],0.964
same,glycan array binding signal (z-score),[12],-0.111
same,glycan array binding signal (z-score),[13],-0.428
same,glycan array binding signal (z-score),[14],-0.238
same,glycan array binding signal (z-score),[15],3.17
same,glycan array binding signal (z-score),[16],-0.142
same,glycan array binding signal (z-score),[17],1.23
same,glycan array binding signal (z-score),[18],-0.217
same,glycan array binding signal (z-score),Fuc(a1-4)GlcNAc,0.957
same,glycan array binding signal (z-score),Fuc(b1-3)GlcNAc,-0.406
same,glycan array binding signal (z-score),Gal(a1-2)Gal,-0.699
same,glycan array binding signal (z-score),Gal(a1-3)Gal,0.015
same,glycan array binding signal (z-score),Gal(a1-3)Gal(b1-3)GlcNAc,0.064
same,glycan array binding signal (z-score),[19],-0.474
same,glycan array binding signal (z-score),[20],1.53
same,glycan array binding signal (z-score),[21],-0.239
same,glycan array binding signal (z-score),[22],-0.002
same,glycan array binding signal (z-score),[23],-0.118
same,glycan array binding signal (z-score),Gal(a1-3)Gal(b1-4)Glc,3.4
